Reference: the supplement of paper PMC10681739
± gives the standard deviation of the averaged measurements. In all, about 4,100 sequences were measured (“arbitrary fluorescence units”: median about 780, highest 2% from about 22,000 on). Some of the results follow.

molecular target: T1, ETS1 (UniProt P14921); assay: ETS1 binding intensity (PBM fluorescence), ETS1 alone (arbitrary fluorescence units); higher = stronger binding; conditions: ETS1 concentration 1 nM; RUNX1 concentration 0 nM
T1 sequence: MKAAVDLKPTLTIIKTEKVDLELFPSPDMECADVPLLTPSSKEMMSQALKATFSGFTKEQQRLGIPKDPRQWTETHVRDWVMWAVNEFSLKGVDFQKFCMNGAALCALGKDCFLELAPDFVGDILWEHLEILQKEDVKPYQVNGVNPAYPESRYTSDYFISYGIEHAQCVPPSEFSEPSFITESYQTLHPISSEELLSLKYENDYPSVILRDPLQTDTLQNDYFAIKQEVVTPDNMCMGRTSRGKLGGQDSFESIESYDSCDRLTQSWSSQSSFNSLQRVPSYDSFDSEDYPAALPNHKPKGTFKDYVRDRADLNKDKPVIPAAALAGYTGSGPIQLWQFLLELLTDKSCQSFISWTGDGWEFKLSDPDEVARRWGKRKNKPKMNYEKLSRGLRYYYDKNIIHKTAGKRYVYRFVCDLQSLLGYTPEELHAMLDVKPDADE
Procedure, shortened: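 Double-stranded Agilent 4 × 180k arrays held 36-bp genomic probes whose RUNX1 partner site was mutated, and these were incubated with 1 nM full-length recombinant human ETS1 in the absence of RUNX1 under standard PBM protocols. Bound protein was labelled with anti-ETS1 antibody (Cell Signaling Technology 14069) plus an Alexa488-conjugated secondary and read on a GenePix 4400A, with four spots printed per sequence. Binding level is reported as raw spot fluorescence intensity summarised over replicate spots.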

| Sequence | ETS1 binding intensity |
| --- | --- |
| GCTCAAACAATAAGCACAACACTTCCTGCCTCTCTC | 4230 |
| TTTAACCTTCGGCCTCCTTGCAGTCCTTCCTTGCGC | 385 |
| CCGGGTGGCCATAAACATCACCCGGAAGCCTGAATA | 4450 |
| CTCGGCCAACGCGTGCTCCACTCGGAAGTGGTGCCG | 457 |
| CCTGTCCTGATCGCGGCGAATAACATTTCCTACAGC | 596 |
| AGCCCGCCGGAAACTAGCGTCGCCGCGCCAAGGTTC | 3100 |
| CAAAGCTACCAAAAAGCTACCAGAGAACGGAAGAGA | 442 |
| AGAACGGCAGGGGTTTCCAGGATGGTCTGGAGGAGG | 400.8 ± 3.1 |
| GTGGCTTTGGGGTTCCTTGTTTCCTGGGCTGGTCTG | 489 |
| TCCGCTTCTGTTGTCTGATCTTCCTGGGGCTGAACC | 386 |
| TAAGAAGCTCCAGCAGCAGGCACGGAAATAAACAGC | 380 |
| TGCAAAAAAACAGGAAACACCCAGCCGTAAATTATA | 1830 |
| CTACCGGAAATGCAGCACCACGTAAAATGCGCTCGG | 18100 |
| AGCTGGGGTAGGGGGCAGAACCGGGAACCGGATGTT | 4510 |
| CGGAGGCGCGATTTCCAAGCACGGAAACCTTCAGCC | 357 |
| CAGCTAGAGGAAGCGCTTCGCCCGCGAACCCCAGGG | 1380 |
| CCAACACGGATACAAAAAATATCTCTCTACCTCACT | 677 |
| CAGATTTCCGGCTTCTGAGGAGCTGCCCTACCCCAG | 38200 |
| ATGAAAGGACCAAAAAGCCTCAGACAGGAAGCTGCA | 839 |
| CTTTGCAGGGAATAACTTGGGGTTTCCTGTCTTGAT | 1340 |
| TGCAACGCCGGAATCGCGCAAGCCGCCGGTGCACGT | 342 |
| GCTAAGAGCAGGAAATGATCTGGGAACCTCCATCAC | 4150 |
| CCGGGAAACACGGGAGAGCGACCGAAATCGCAATCA | 424 |
| CCTTGCTGCAGGATGCTCTAACTACAAGCCCAGGAG | 602 |
| GGCGGGGGAGGCGGGTCGGGAAGTAGTGCCGGGTGC | 1090 |

| Sequence | ETS1 binding intensity |
| --- | --- |
| CTCACTTCCCCGGCAGCTCCCTCGCCCCGACCCCAG | 1000 |
| GAAAGCTCAGGCACGGCCGGGCCACCAGGAAAACAC | 342 |
| ACGTGCACCGGCGGCTTGCGCGATTCCGGCGTTGCA | 321 |
| CAATCAACCCCAATGTGACCCTACAGGCGGAAAAAA | 406 |
| TGGGGGCGGAAGCCTAAACCCCTCCCTCAGCCAGTC | 922 |
| GGACGCCGCCGGAAGCGCGACCTGCACTCCCGGTAG | 3560 |
| CTAGCCACCTCGGCCCCACCCTCTTCCGGCCTCAGC | 1820 |
| GTCACGCGCCGGATCCAACCCCCAATCACTTTAGCC | 409 |
| AACAAGGCTGTAGGTGAACCCCAGCTTCCTGCAAAG | 702 |
| GTCACAGCTGCAGAGCGCCCGACTTCCCAGAAGGCA | 351 |
| GGCGCCCGGGAAACTGTGTGGCGCTGCAGGCCGCGC | 341 |
| GCGGAGCACCTCCCAGAGAGGGAAGGAAATGCCAGC | 449 |
| CGGCCTCATCCACTCAGCGACCGGAAGGGGGAAGAA | 3410 |
| AACTACTGCAGCTTCAAAATCCGGATGCGCCGGTAT | 766 |
| TCCGGAAATAGATAATATCTAGTTAAACCCCAAAAT | 2460 |
| TTCACGCTCCGTAAGCTCGCTCCTTCCGGGACGCAG | 643 |
| CCTGCTGCTGTCAGCCCTGTCTCTTCCTGTTTCTGC | 1030 |
| GGAGTGAACAACCGAAACAGATAGGGAAGTGACACA | 353 |
| CCAGGCGTTTCCGGGTTCCCGAGGTCCCGTCCCCCA | 10500 |
| CTGAAGTCACAAAATGACGTCACTTTCCTGCTTTCT | 460 |
| TTACCCCGGCGGAACGGAGGCCTGCAGTCGCGGCGG | 374 |
| TACGCTTCTCCGGCCGCCTAACCCGGAAGCGAAACC | 1340 |
| CGCCTGGTGTCCGGTCCCGGGGCCGAAGGGTCCGGC | 2090 |
| GGTCACATCCTTTCCCTTCTGTGTCTCAGCCCCAGT | 4770 |
| CCAGAGGGCGGAAGTGGGAGCTGCGACGGCGCTCCC | 7030 |

| Sequence | ETS1 binding intensity |
| --- | --- |
| GCCCGCCCCGGAAGTGCAAACTGTGTGCTCTGGCAG | 8350 |
| TAAACTGGACCTCGAAGGGAATAGCCGGAACCCGCC | 341 |
| ATCACTCACCAAAAAAGTCCCTTCACACTTCCTCCC | 634 |
| TCCTCCACCTCAGAAAGGCAACCGGATCCTACCCGG | 378 |
| CCCTCGGTGCGTGCGCAGCTCCGACTTCCGGGTGCT | 1900 |
| CAGTGGCAGGAAGAGGTCAGAATCCACTCTTGGTGG | 1820 |
| CCCTCTCTTCTTCCTCCCCCACCCCAAAAGTCACAG | 631 |
| AGCCTCCCGGACGCCGTCGCCCCCTCACACGCCCGC | 393 |
| TTTCCACTTCCTGTTCTACTTGGGGCTACTGACTCA | 25500 |
| GGCTTCTTATTGTAGCTTACACTTCCTCAGTAGATG | 608 |
| AGAAACATCCTGCCCAGCCACCTGACTACAAGGCAC | 14600 |
| AGAGAGACCAGCGGCTGTTTCCGCCCACTCGTCCCA | 1900 |
| TAGACCAGTGTGCTCAGCCGCCCCTTCCTAAGCTGC | 320 |
| CATCCAGGACGGAAACAGCATCCCCACCGAGGGAGC | 1600 |
| ACTGTGTCTGGTGTTCCATAGAGGAAACTGCAAAGC | 491 |
| AAAGACCTTGGGGTCCCAACTTCCTTATGTGGACAG | 709 ± 55 |
| AAGTGAAGAGCTTCCGCCGGGAGACCTCGGCTGCAG | 4160 |
| CTCAGCGGCAGCAAGCCCCACCCCGGAAGTCGGCTG | 1590 |
| CCCAGAGTCCGGAATCGCTGCCTGCGCCTTGACACA | 392 |
| GTCACTGTCGTATTTACTTTAGCTTCCTGTTCATCC | 1880 |
| TTTACGGGCGGGCGGCGGCGAAGGCGATCCGGCCCG | 395 |
| TGCCTACGGCCTGGGCTGGGTGTAGCCCCGGAACCT | 322 |
| TGGGACTGTTGCCACCACCACTTCCTCTCTGCTCTG | 1710 |
| TGCTCACATCCTCTGCAGCTTTGAGGGTGCCATCAC | 4550 |
| GACTTCCTGTTGAAGATTGGCCTCTTCGGTAGCACA | 44600 |

| Sequence | ETS1 binding intensity |
| --- | --- |
| TGGTCCGTGGCTGATATTTACGGGAAATGGGGCGAG | 610 |
| ACGTTCGGCCCCGCGCACTCAGCATTTCCGGCTTCG | 5240 |
| CGGGCCGGATCGCCTTCGCCGCCGCCCGCCCGTAAA | 344 |
| ATGACCGATCAACCCCAAAGGCCGGAAATGCGTCAG | 4020 |
| GACAGTTTTCCGGCCTAGTTTACGGCTGCTCCTGCC | 5000 |
| CTCCGCCAGCGCCCTCAGGACCCGGATGAGAGCGCA | 402 |
| GTTCTGGGGAGTGCAAAAGCCCAGCAGGAAGCCGCT | 465 |
| TGGGTCACGGTGGCTGTGAGGGCGGAAGAAAAGGCC | 361 |
| TATCACATCCTGCCGGACAAAAAGGCCAAAGCACCT | 13500 |
| GGACCGGAAGTTAAGGCGTTCGCGGCGTGTGATAAG | 22900 |
| ACTCGCTCCGGCCGCCGCCCCCTCGGAAGCTGCTAG | 349 |
| ACCTTCGCCGCTGTCCCCAGCCTCTTCCTGTCCCGG | 1130 |
| TCAATAAGACAGGATGTTCTCCAACCCCATTAAGCT | 3260 |
| CTTTGTAGGCGCTCCCTGCGTCGCGGAAGTTGGGAG | 347 |
| CCGGGTAGGATCCGGTTGCCTTTCTGAGGTGGAGGA | 2140 |
| ACTACAACTTCCGACTTGCATCACTGGGGTGGCGCT | 3220 |
| GGCAGGAAGGAATGGCGGGAACGGGGCCTGCAGGGC | 624 |
| GTGGACTGGAGCCCCAAGGGAGGCAGGAAGGAAGGT | 618 |
| GAAGAGCAAGACCAAGTGAAGGAAACTTCACTAAGT | 379 |
| TGGCCTCTTCGGCCCTGGCCTTGACTTCCTTTCCTC | 362 |
| ACGTCATCGCGCAGGGCTGGCGCGTCCGGCGCAGTC | 393 |
| GCAGATATCACAGACTCTCTCCTTTCCTGCTGAATA | 546 |
| TTCTTCAGGAAGGCGGGCTTGCGCCGTAGGAGCGGG | 315 |
| AACTTCCTTCCCGAGAGCCTGAAGCAGCCGTAGGCC | 9120 |
| AAATCACATTTCCCAGAGTGCACCTCGACGGCAGGG | 424 |

| Sequence | ETS1 binding intensity |
| --- | --- |
| GAAGAGACTCCCGCCACCTTGGCCGTTTCCCCTGAT | 318 |
| TCACGTGGCCGCGCTCCGGTAACGGAAGAAACAAGA | 394 |
| TGCTGCACCTCGACCTCAGCTACTTCCTGCTCAGGT | 3050 |
| GATGACTTCCTCAGTTCAGGGCTATGTACGGGGGAG | 4670 |
| GGGCTTGAACGCCATGTTTGAAGCGGGCGGAAAAAA | 289 |
| AGATTTATGTGATAAATGGTTTCAGGGAAGTGGTTC | 413 |
| CCGCTTCCGGGACGCGAATCGCTCTGGGGCTGCGTC | 15600 |
| GGCTCCAAAACTACAGGGCGGAGGCTTCCGCGCGGC | 349 |
| TGCGATGCCGAAGTGGCTCAGTGCTTCCTGGCCGAG | 407 |
| GATGCAGTGTAGTTTAACGGTTTCCTGACTTTGAAG | 603 ± 39 |
| CTTCGACCCCGGAAGCGCTAACAACCCCGGGGGCCG | 4060 |
| GGGGAACTCAACGCGCACTAAGAGCGGAACGTGAAC | 392 |
| CACTGGCAAGGTGGCTTGAGAACTTCCTCTTTCATC | 922 |
| TCACTAATTGTGAGGGGCCCCAGGATGTGTTTTGGT | 369 |
| CTCGGCGCCCGCTGTCCATGGACCGGAACCTCGGGC | 380 |
| AACAGTTGCTTGCTGGATATGCTTCCTTGGATCTGT | 390 |
| GACGGAGGATGTGTAGTTCTGTCTCCTTACGGCCTC | 497 |
| CAGCCGACTTCCGGGGTGGGGCTTGCTGCCGCTGAG | 19300 |
| TTGTTCGCTTCGGCGACCAGCTCCGGAAAGCGCGGC | 347 |
| ATACCGGCGCATCCGGATTTTGAAGCTGCAGTAGTT | 4600 |
| CAGCAGTGGATTTGCAGGAGCAGGCTCCATCCGCAG | 574 |
| ATGGATATAAAGCTCAAACAGGAAGTGATAAAGCAA | 5760 |
| CAGGGGGCCCCAAATGCCGCTCTTCCTGCCCAGGTC | 984 |
| GCTCGGAAATACCAATATTGGGCTCTGGTATTTGAA | 440 |
| CTTGGCGGAAGTGGTGTGGGGGAGGTAGCCCTCAGT | 6430 |
